Read counts are not given, so values of variants with three or more changes are uncertain.
B1: CPEB3 Ribozyme (parent)
chain: UAACAGGGGGCCACAGCAGAAGCGUUCACGUCGCAGCCCCUGUCAGAUUCUGGUGAAUCUGCGAAUUCUGCUGUAUAUCUC

Variants of: B1
Experiment: self-cleavage, relative activity (ratio to wild type); higher = more cleavage; in vitro, sequencing
Method in brief: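 Relative activity was defined as the cleaved/total read fraction for a variant divided by the same fraction for the unmutated ribozyme. CPEB3 self-cleaving ribozyme libraries were made by rounds of error-prone PCR, barcoded, and transcribed in vitro with T7 RNA polymerase for 5 hours at 37°C, and cleavage ran through transcription plus a 15 min DNase I step before EDTA. Illumina sequencing of template-switched reverse transcripts gave the reads, and DNA sequencing mapped the barcodes. Averages come from three batches, using variants with at least 5 reads.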

**Q.** Which self-cleavage does the source give for U58C U72A U74G here?
**A.** 0.42

**Q.** With U58C U78C C79A as the variant, how does the self-cleavage read?
**A.** 0.82

**Q.** With U58G A77U U80C as the variant, how does the self-cleavage read?
**A.** 0.51

**Q.** Which self-cleavage does the source give for U58G U69C U76C U78C here?
**A.** 0.12

**Q.** For C59A U60C U72C, which self-cleavage is on record?
**A.** 0.2

**Q.** For C59A U69C U74A U78C, which self-cleavage is on record?
**A.** 0.23

**Q.** With C59G U60C U66C C68A A75G as the variant, how does the self-cleavage read?
**A.** 0.15

**Q.** Which self-cleavage does the source give for C59U A75G U80C here?
**A.** 0.36

**Q.** For U60A A65G A75G U78C, which self-cleavage is on record?
**A.** 0.18

**Q.** Which self-cleavage does the source give for U60A G63U U66C here?
**A.** 0.23

**Q.** With U60A U67G U72C as the variant, how does the self-cleavage read?
**A.** 0.47

**Q.** With U60A U72C C79A as the variant, how does the self-cleavage read?
**A.** 0.38

**Q.** With U60A U72C C81U as the variant, how does the self-cleavage read?
**A.** 1.01

**Q.** With U60C A64G A77G as the variant, how does the self-cleavage read?
**A.** 0.41

**Q.** For U60C A64G U69C, which self-cleavage is on record?
**A.** 0.43

**Q.** With U60C A64G U76C as the variant, how does the self-cleavage read?
**A.** 0.46

**Q.** Which self-cleavage does the source give for U60C A65G U78C here?
**A.** 0.23

**Q.** With U60C A65U U78A as the variant, how does the self-cleavage read?
**A.** 0.14

**Q.** With U60C U66C U69C U78C U80C as the variant, how does the self-cleavage read?
**A.** 0.26

**Q.** Which self-cleavage does the source give for U60C U67A G73A here?
**A.** 0.38

**Q.** Which self-cleavage does the source give for U60C U67C U69A here?
**A.** 0.45

**Q.** With U60C U69A U72C as the variant, how does the self-cleavage read?
**A.** 0.29

**Q.** For U60C U69A U78A, which self-cleavage is on record?
**A.** 0.33

**Q.** For U60C U69C U72A G73C, which self-cleavage is on record?
**A.** 0.36

**Q.** For U60C U72A U80A, which self-cleavage is on record?
**A.** 0.76

**Q.** For U60C U74C A75U, which self-cleavage is on record?
**A.** 0.67

**Q.** With U60C U76A U80C as the variant, how does the self-cleavage read?
**A.** 0.73

**Q.** Which self-cleavage does the source give for U60C U76C A77G here?
**A.** 0.68

**Q.** For U60C U76C U80A, which self-cleavage is on record?
**A.** 0.6

**Q.** For U60G A65G U66C U74C, which self-cleavage is on record?
**A.** 0.21

**Q.** For G61A U76C U80A, which self-cleavage is on record?
**A.** 1.01

**Q.** Which self-cleavage does the source give for G61C A64G A65G U80C here?
**A.** 0.25

**Q.** Which self-cleavage does the source give for G61C A64G U69C here?
**A.** 0.23

**Q.** With G61C A64U U72A as the variant, how does the self-cleavage read?
**A.** 0.29

**Q.** With C62A A77G C81U as the variant, how does the self-cleavage read?
**A.** 0.19

**Q.** With C62A U66C A75U as the variant, how does the self-cleavage read?
**A.** 0.24

**Q.** With C62G A65U U78G as the variant, how does the self-cleavage read?
**A.** 0.15

**Q.** For C62G U66G U78A, which self-cleavage is on record?
**A.** 0.13

**Q.** With C62U A64G U76A as the variant, how does the self-cleavage read?
**A.** 0.18

**Q.** With C62U U74C A75G as the variant, how does the self-cleavage read?
**A.** 0.26

**Q.** For G63A A64G A77U, which self-cleavage is on record?
**A.** 0.42

**Q.** With G63A A64G U69C as the variant, how does the self-cleavage read?
**A.** 0.25

**Q.** For G63A U69A U72C, which self-cleavage is on record?
**A.** 0.32

**Q.** For G63C U67C U72C, which self-cleavage is on record?
**A.** 0.24

**Q.** With G63U U67C A75U as the variant, how does the self-cleavage read?
**A.** 0.38

**Q.** Which self-cleavage does the source give for G63U U67C U76C here?
**A.** 0.24

**Q.** With G63U U69G U72A as the variant, how does the self-cleavage read?
**A.** 0.46

**Q.** With A64G A75G U78C as the variant, how does the self-cleavage read?
**A.** 0.55

**Q.** With A64G C71G U72A U78C U80C as the variant, how does the self-cleavage read?
**A.** 0.24

**Q.** For A64G U66C U69C, which self-cleavage is on record?
**A.** 0.22

**Q.** For A64G U67A U69C C71U, which self-cleavage is on record?
**A.** 0.25

**Q.** For A64G U74A C81G, which self-cleavage is on record?
**A.** 1.29

**Q.** Which self-cleavage does the source give for A64U A75G A77G here?
**A.** 0.07

**Q.** With A64U C71U U78C as the variant, how does the self-cleavage read?
**A.** 0.18

**Q.** Which self-cleavage does the source give for A64U U67C U69C here?
**A.** 0.19

**Q.** With A64U U72C A75G as the variant, how does the self-cleavage read?
**A.** 0.35

**Q.** For A64U U74A A75G U80C, which self-cleavage is on record?
**A.** 0.68

**Q.** Which self-cleavage does the source give for A65G A77G U80C here?
**A.** 0.35

**Q.** Which self-cleavage does the source give for A65G U66C U72A here?
**A.** 0.22

**Q.** For A65G U69A U74C, which self-cleavage is on record?
**A.** 0.24

**Q.** Which self-cleavage does the source give for A65G U69C U72C A75U here?
**A.** 0.22

**Q.** For A65G U69C U78A, which self-cleavage is on record?
**A.** 0.37

**Q.** For A65G U72A U76A, which self-cleavage is on record?
**A.** 0.26

**Q.** For A65U G70A U72C, which self-cleavage is on record?
**A.** 0.25

**Q.** For A65U U74C U76A, which self-cleavage is on record?
**A.** 0.55

**Q.** Which self-cleavage does the source give for U66A U67C U78C here?
**A.** 0.32

**Q.** Which self-cleavage does the source give for U66A U76C A77G here?
**A.** 0.33

**Q.** For U66C A75U U76A U80A, which self-cleavage is on record?
**A.** 0.41

**Q.** For U66C A75U U78C, which self-cleavage is on record?
**A.** 0.3

**Q.** For U66C U69A G73C, which self-cleavage is on record?
**A.** 0.26

**Q.** For U66C U69C U74A, which self-cleavage is on record?
**A.** 0.28

**Q.** For U66C U69C U74C, which self-cleavage is on record?
**A.** 0.22

**Q.** For U66C U74A U80A, which self-cleavage is on record?
**A.** 1.04

**Q.** With U66C U76C U80C as the variant, how does the self-cleavage read?
**A.** 0.54

**Q.** For U67A U69A A75U, which self-cleavage is on record?
**A.** 0.22

**Q.** Which self-cleavage does the source give for U67C U69C G70A U72C here?
**A.** 0.26

**Q.** For U67C U76A A77G, which self-cleavage is on record?
**A.** 0.43

**Q.** Which self-cleavage does the source give for U67G U69A U76A here?
**A.** 0.18

**Q.** With C68U U74C A77U as the variant, how does the self-cleavage read?
**A.** 1.15

**Q.** With U69A U72C A77G as the variant, how does the self-cleavage read?
**A.** 0.49

**Q.** Which self-cleavage does the source give for U69A U74A U78C here?
**A.** 0.58

**Q.** Which self-cleavage does the source give for U69A U74C U78C here?
**A.** 0.85

**Q.** With U69C C79A C81U as the variant, how does the self-cleavage read?
**A.** 0.71

**Q.** With U69C U72A A77G as the variant, how does the self-cleavage read?
**A.** 0.4

**Q.** Which self-cleavage does the source give for U69C U76A U78C here?
**A.** 0.74

**Q.** Which self-cleavage does the source give for U69C U76C U78C here?
**A.** 0.78

**Q.** Which self-cleavage does the source give for U69C U78C U80C here?
**A.** 0.56

**Q.** Which self-cleavage does the source give for G70A C71G U74C here?
**A.** 0.21

**Q.** Which self-cleavage does the source give for U72C U74C U78C here?
**A.** 1.31

**Q.** With U74C U76A A77U as the variant, how does the self-cleavage read?
**A.** 1.24

Reference: the RNAGym collection of RNA variant scans (doi:10.1093/nar/gkz1192)
